In the supplement of paper PMC4967469:
The IC50 comes from the fitted curve, where viability falls to half of the control; where the fit passes the top or lowest dose, that dose stands as a limit. For AUC the same curve is integrated over the 256-fold range of doses and scaled to a fraction; the more sensitive the line, the further below 1. For some assays here: The top dose, if marked as inferred, was calculated from the reported fits. For some assays here: An entry number marks a drug with two screens in the source, which often give different values.

Tests used:
Assay in all cases: Viability of human cancer cell lines after 72 h of drug (GDSC screen)
Elesclomol = compound: CN(NC(=O)CC(=O)NN(C)C(=S)c1ccccc1)C(=S)c1ccccc1 [Elesclomol]; details: top dose 0.2 µM; top dose inferred
Procedure: (§1)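 Human cancer cell lines in 384-well plates, medium with 10% serum, drug for 72 h over a 256-fold dose range (nine 2-fold or five 4-fold steps up to the top dose). Adherent lines were fixed and stained with the nucleic acid dye Syto60, suspension lines read with resazurin; signal relative to control wells, capped at 0 and 100%. One two-parameter sigmoid per drug and line, fitted in a mixed model over all curves with the slope shared within a line.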

BX-912 = compound: O=C(Nc1cccc(Nc2ncc(Br)c(NCCc3cnc[nH]3)n2)c1)N1CCCC1 [BX-912]; details: top dose 10.24 µM; top dose inferred
Procedure: as §1

HG-5-88-01 = compound: COc1cc(N2CCC(C(N)=O)CC2)ccc1Nc1nc(N)c(Cl)c(Nc2ccccc2S(=O)(=O)C(C)C)n1 [HG-5-88-01]; details: top dose 10 µM; top dose inferred
Procedure: as §1

NSC-87877 = compound: O=S(=O)(O)c1ccc2cc(N=Nc3cc(S(=O)(=O)O)c4cccnc4c3O)ccc2c1 [NSC-87877]; details: top dose 16 µM; top dose inferred
Procedure: as §1

Tamoxifen = compound: CC/C(=C(\c1ccccc1)c1ccc(OCCN(C)C)cc1)c1ccccc1 [Tamoxifen]; details: top dose 5 µM
Procedure: as §1

OSI-930 = compound: O=C(Nc1ccc(OC(F)(F)F)cc1)c1sccc1NCc1ccnc2ccccc12 [OSI-930]; details: top dose 10.24 µM
Procedure: as §1

Bleomycin = compound: Cc1c(N)nc([C@H](CC(N)=O)NC[C@H](N)C(N)=O)nc1C(=O)N[C@H](C(=O)N[C@H](C)[C@@H](O)[C@H](C)C(=O)N[C@H](C(=O)NCCc1nc(-c2nc(C(=O)NCCC[S+](C)C)cs2)cs1)[C@@H](C)O)[C@@H](OC1OC(CO)C(O)C(O)C1OC1OC(CO)C(O)C(OC(N)=O)C1O)c1cnc[nH]1 [Bleomycin]
Procedure: as §1

VNLG/124 = compound: CCCC(=O)OCc1ccc(OC(=O)/C=C(C)/C=C/C=C(C)/C=C/C2=C(C)CCCC2(C)C)cc1 [VNLG/124]; details: top dose 5.12 µM; top dose inferred
Procedure: as §1

LAQ824 = compound: O=C(/C=C/c1ccc(CN(CCO)CCc2c[nH]c3ccccc23)cc1)NO [LAQ824]; details: top dose 1.024 µM; top dose inferred
Procedure: as §1

Masitinib = compound: Cc1ccc(NC(=O)c2ccc(CN3CCN(C)CC3)cc2)cc1Nc1nc(-c2cccnc2)cs1 [Masitinib]; details: top dose 20 µM
Procedure: as §1

[1] = top dose 50 µM, screen: GDSC drug entry 1378, top dose inferred
[2] = top dose 64 µM, screen: GDSC drug entry 190

Cell Line	AUC (Elesclomol)	IC50 (Elesclomol)	AUC (BX-912)	IC50 (BX-912)	AUC (HG-5-88-01)	IC50 (HG-5-88-01)	AUC (NSC-87877)	IC50 (NSC-87877)	AUC (Tamoxifen)	IC50 (Tamoxifen)	AUC (OSI-930)	IC50 (OSI-930)	AUC (Bleomycin; [1])	IC50 (Bleomycin; [1])	AUC (Bleomycin; [2])	IC50 (Bleomycin; [2])	AUC (VNLG/124)	IC50 (VNLG/124)	AUC (LAQ824)	IC50 (LAQ824)	AUC (Masitinib)	IC50 (Masitinib)
A375 (melanoma, adherent)	0.186	1.83 nM	0.887	7.9 µM	0.837	5.08 µM	0.988	> 16 µM	0.991	> 5 µM	0.991	> 10.2 µM	0.099	221 nM	0.113	323 nM	0.987	> 5.12 µM	0.393	34.5 nM	–	–
A704 (kidney, adherent)	0.599	23.2 nM	0.956	> 10.2 µM	0.956	> 10 µM	0.986	> 16 µM	0.972	> 5 µM	0.985	> 10.2 µM	0.953	> 50000 nM	0.595	7210 nM	–	–	0.525	74.9 nM	0.893	> 20 µM
A2780 (ovary, semi-adherent)	0.402	6.65 nM	0.461	0.499 µM	0.983	> 10 µM	0.967	> 16 µM	0.977	> 5 µM	0.897	> 10.2 µM	0.826	31800 nM	0.149	309 nM	0.975	> 5.12 µM	–	–	0.84	14.5 µM
D-247MG (glioma, adherent)	0.612	28.5 nM	0.778	5.8 µM	0.922	> 10 µM	0.969	> 16 µM	0.977	> 5 µM	0.842	> 10.2 µM	0.598	6400 nM	–	–	0.979	> 5.12 µM	–	–	0.448	0.858 µM
D-336MG (glioma, adherent)	0.583	22.4 nM	0.782	5.64 µM	0.904	> 10 µM	0.981	> 16 µM	0.945	> 5 µM	0.967	> 10.2 µM	0.743	19300 nM	–	–	0.885	> 5.12 µM	–	–	0.904	> 20 µM
H290 (mesothelioma, adherent)	0.558	17.8 nM	0.985	> 10.2 µM	0.897	> 10 µM	0.988	> 16 µM	0.978	> 5 µM	0.971	> 10.2 µM	0.196	434 nM	0.267	927 nM	–	–	0.405	36 nM	0.883	18.3 µM
JHU-029 (head and neck, adherent)	0.5	12.5 nM	–	–	0.883	> 10 µM	0.961	> 16 µM	0.914	> 5 µM	–	–	0.178	254 nM	0.333	1230 nM	–	–	0.236	8.97 nM	–	–
LB647-SCLC (small cell lung carcinoma, semi-adherent)	0.487	11.4 nM	0.728	3.12 µM	0.915	> 10 µM	0.982	> 16 µM	0.983	> 5 µM	–	–	0.313	873 nM	0.477	3430 nM	0.976	> 5.12 µM	0.286	14.6 nM	–	–
MOG-G-UVW (glioma, adherent)	0.269	2.81 nM	0.666	1.83 µM	0.893	> 10 µM	–	–	0.98	> 5 µM	0.973	> 10.2 µM	0.098	< 195 nM	0.33	1360 nM	0.944	> 5.12 µM	0.646	160 nM	0.892	> 20 µM
NCI-H630 (large intestine, adherent)	0.974	> 200 nM	0.96	> 10.2 µM	0.91	> 10 µM	0.95	> 16 µM	0.987	> 5 µM	0.96	> 10.2 µM	0.897	> 50000 nM	–	–	0.987	> 5.12 µM	–	–	0.906	> 20 µM
PL4 (pancreas, adherent)	0.787	90.4 nM	0.954	> 10.2 µM	0.832	6.72 µM	–	–	0.985	> 5 µM	0.971	> 10.2 µM	0.408	1730 nM	0.674	12400 nM	0.987	> 5.12 µM	0.486	58.5 nM	0.986	> 20 µM
QGP-1 (pancreas, adherent)	0.94	> 200 nM	0.909	> 10.2 µM	0.932	> 10 µM	–	–	0.965	> 5 µM	0.973	> 10.2 µM	0.942	> 50000 nM	–	–	0.978	> 5.12 µM	–	–	0.921	> 20 µM
RCC-AB (kidney, adherent)	0.778	107 nM	0.83	9.36 µM	0.978	> 10 µM	–	–	0.96	> 5 µM	0.948	> 10.2 µM	0.659	9910 nM	–	–	0.969	> 5.12 µM	–	–	0.793	12.4 µM
RCC-ER (kidney, adherent)	0.551	17.5 nM	0.961	> 10.2 µM	0.897	> 10 µM	–	–	0.959	> 5 µM	0.975	> 10.2 µM	0.744	17300 nM	–	–	0.961	> 5.12 µM	–	–	0.875	> 20 µM
